Test results as given in PubChem BioAssay AID485281 (National Center for Advancing Translational Sciences (NCATS), 2010).
Screen size: about 350,000 compounds; about 260 (0.074%) were called active. Inconclusive results, whose numbers are uncertain, are shown with a selection of clear calls. Calls come from the whole dose curve; as a rule, active = well fitted inhibition curve with a large enough effect; inconclusive = small, poorly fitted or top-dose-only effect; inactive = no such curve, though single readings can be large or run the other way. Where the call is inconclusive, the potency comes from a doubtful curve fit.

What follows are compounds tested against Ferritin light chain (Equus caballus) (UniProt P02791) (assay: qHTS Assay for Identification of Novel General Anesthetics). Conditions: apoferritin/1-aminoanthracene competitive binding, fluorescence; series mostly up to 77.5 µM.
Chain of UniProt P02791 (P02791 whole entry, looked up): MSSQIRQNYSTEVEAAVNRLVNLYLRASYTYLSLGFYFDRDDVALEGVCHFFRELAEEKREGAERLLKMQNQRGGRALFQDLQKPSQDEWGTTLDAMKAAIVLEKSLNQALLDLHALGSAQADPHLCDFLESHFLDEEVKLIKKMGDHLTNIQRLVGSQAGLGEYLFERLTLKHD
Excerpt: Source: NIH Chemical Genomics Center [NCGC]
Assay Submitter: Roderic Eckenhoff, University of Pennsylvania
Screening Center PI: Christopher P. Austin, NIH
Probe Development: NIH Chemical Genomics Center [NCGC]
Anesthetic development has remained a largely empirical process. There are growing concerns about the cognitive effects of known general anesthetics and acceleration of the onset of neurodegenerative disease. The compounds' toxicity and multiple specific binding targets in the mammalian brain [4] has made them less attractive as drug leads. In this assay, a GABAergic mimetic model system, apoferritin and a profluorescent 1-aminoanthracene ligand (1-AMA), was used to construct a competitive binding assay for identification of novel general anesthetics. The assay was validated for 1-AMA using other known anesthetics, such as isoflurane (CID:3763) and propofol (CID: 4943), [6].
[1] S.L. Bianchi, T. Tran, C. Liu, S. Lin, Y. Li, J.M. Keller, R.G. Eckenhoff, and M.F. Eckenhoff, Brain and behavior changes in 12-month-old Tg2576 and nontransgenic mice exposed to anesthetics. Neurobiol Aging 29 (2008) 1002-10.
[2] Z. Xie, Y. Dong, U. Maeda, R.D. Moir, W. Xia, D.J. Culley, G. Crosby, and R.E. Tanzi, The inhalation anesthetic isoflurane induces a vicious cycle of apoptosis and amyloid beta-protein accumulation. J Neurosci 27 (2007) 1247-54.
[3] P. Honegger, and J.M. Matthieu, Selective toxicity of the general anesthetic propofol for GABAergic neurons in rat brain cell cultures.
[4] M.F. Eckenhoff, K. Chan, and R.G. Eckenhoff, Multiple specific binding targets for inhaled anesthetics in the mammalian brain. J Pharmacol Exp Ther 300 (2002) 172-9.
[5] C.A. Butts, J. Xi, G. Brannigan, A.A. Saad, S.P. Venkatachalan, R.A. Pearce, M.L. Klein, R.G. Eckenhoff, and I.J. Dmochowski, Identification of a fluorescent general anesthetic, 1-aminoanthracene. Proc Natl Acad Sci U S A 106 (2009) 6501-6.
[6] W.A. Lea, J. Xi, A. Jadhav, L. Lu, C.P. Austin, A. Simeonov, and R.G. Eckenhoff, A high-throughput approach for identification of novel general anesthetics. PLoS One 4 (2009) e7150.
Three uL of reagents (free 1-AMA (50% saturated solution of 1-aminoanthracene
in PBS) in columns 3, 4 as negative control and 1-AMA/apoferritin mixture (10 uM horse-spleen apoferritin in 50% saturated 1-aminoanthracene in PBS) in columns 1, 2, 5-48) was dispensed into 1536-well Greiner black assay plates. Compounds (23 nL) were transferred via Kalypsys pintool equipped with 1,536-pin array (10 nL slotted pins, V&P Scientific, San Diego, CA). Titration of the positive control, propofol, were delivered via pin transfer from separate control plates to the 2nd column of each assay plate. The starting concentration of the control, dissolved in DMSO, was at 160 mM, followed by two-fold dilution points in duplicate, for a total of 16 concentrations. The plates were incubated for 10 min at room temperature, and then read on an EnVision HTS multilabel reader (Perkin-Elmer, Waltham, MA) (end point read, 3 min/plate) using Fura2 BFP excitation filter (380 nm, bandwidth 10 nm) and fluorescein emission filter (535 nm, bandwidth 25 nm) set. A LANCE/DELFIA dichroic mirror with a cutoff wavelength at 400 nm was used to maximize signal accuracy and strength. Vehicle-only plates, with DMSO being pin-transferred to the entire column 5-48 compound area, were inserted uniformly at the beginning and the end of each library in order to monitor for and record any shifts in the background. Activity was computed as the normalized fluorescence response relative to free 1-AMA and 1-AMA/apoferritin complex values. Concentration-effect relationships were derived by using curve fitting algorithms developed in-house (http://ncgc.nih.gov/pub/openhts/). A four parameter Hill equation was fitted to the concentration-response data by minimizing the residual error between the modeled and observed responses.
Note: nearly all actives have a fitted effect of over 20% in size.
Potency is the fitted concentration of half-maximal effect; tags give direction and shape of the fitted curve.

Row | SMILES | Potency
1 | CC(C)(C)c1ccc(-c2n[nH]c(=S)n2C2CCCC2)cc1 | inconclusive: 39.8 µM [inhibitor, partial curve]
2 | Cc1ccc(-c2nc(N)sc2CC(=O)OCC(=O)NCCC(C)C)cc1 | inconclusive: 31.6 µM [inhibitor, single point]
3 | Cc1nnsc1S(=O)(=O)Cc1ccccc1Cl | inconclusive: 39.8 µM [inhibitor, partial curve]
4 | CC(C)S(=O)(=O)N1CCCC(C(=O)c2cccc(Cl)c2)C1 (stereo not drawn) | inconclusive: 50.1 µM [inhibitor, single point]
5 | CO/N=C(\c1nonc1N)N1CCN(c2ccc(Cl)cc2[N+](=O)[O-])CC1 | inconclusive: 31.6 µM [inhibitor, partial curve]
6 | COc1cccc(C2=NN(C(=O)c3ccco3)C(O)(C(F)(F)F)C2)c1 (stereo not drawn) | inconclusive: 28.2 µM [inhibitor, partial curve]
7 | COc1ccc(S(=O)(=O)c2c(Nc3ccc(C)cc3C)sc(C(=O)c3ccc(F)cc3)c2N)cc1 | inactive
8 | O=C1NCCCC1C(=O)N/N=C/c1ccccc1[N+](=O)[O-] (stereo not drawn) | inactive
9 | Cc1ccc(C)c2c1[nH]c1ccc([N+](=O)[O-])cc12 | inconclusive: 50.1 µM [inhibitor, single point]
10 | COc1ccc(CCNC(=S)Nc2cccc(C)c2)cc1 | inconclusive: 56.2 µM [inhibitor, single point]
11 | COc1ccccc1CNC(=O)Cn1cccc1C(=O)c1ccccc1C | inconclusive: 25.1 µM [inhibitor, single point]
12 | Cc1ccc(S(=O)(=O)NCCNS(=O)(=O)c2ccc(C)cc2)cc1 | inactive
13 | Cc1nnsc1C(=O)Oc1ccc(Cl)cc1 | inconclusive: 35.5 µM [inhibitor, single point]
14 | Cc1cccc(-c2nc(CSCC(=O)N3CCN(c4ccccn4)CC3)c(C)o2)c1 | inactive
15 | O=C(NCc1ccccc1)C(=O)NCC1OCCN1S(=O)(=O)c1ccc2c(c1)OCCO2 (stereo not drawn) | inconclusive: 50.1 µM [inhibitor, single point]
16 | O=C(CNS(=O)(=O)c1ccccc1)N/N=C\c1ccc(Cl)cc1 | inconclusive: 39.8 µM [inhibitor, single point]
17 | CCOC(=O)c1ccc(NC(=S)N(CCCN2CCN(CC)CC2)Cc2cccs2)cc1 | inconclusive: 39.8 µM [inhibitor, partial curve]
18 | CCN(c1cccc(C)c1)S(=O)(=O)c1cccc2nsnc12 | inconclusive: 7.94 µM [inhibitor, full curve]
19 | Clc1ccccc1/C=C/c1nc(-c2cccnc2)no1 | inactive
20 | CCOC(=O)c1c(-c2ccc(C)o2)csc1NC(=O)CSc1nnnn1-c1ccccc1 | inconclusive: 31.6 µM [inhibitor, partial curve]
21 | COC(=O)c1ccc(Sc2ccc(C)cc2)c(N)c1 | inconclusive: 35.5 µM [inhibitor, partial curve]
22 | COc1ccc(Oc2coc3cc(OC(=O)/C=C/c4ccccc4)ccc3c2=O)cc1 | inactive
23 | O=c1[nH]c(SCc2ccccc2)nc2[nH]ncc12 | inconclusive: 31.6 µM [inhibitor, single point]

Row | SMILES | Potency
24 | O=C(OCC(=O)N1CCCc2ccccc21)c1cnc(Cl)c(Cl)c1 | inconclusive: 14.1 µM [inhibitor, partial curve]
25 | CN1CCc2c(sc3c2c(=O)n(-c2ccccc2)c2nnc(SCc4ccccc4)n32)C1 | inconclusive: 17.8 µM [inhibitor, partial curve]
26 | CCOc1ncccc1C(=O)Nc1ccc(S(=O)(=O)NC2=NCCCCC2)cc1 | inactive
27 | COc1ccc(OC)c(C(=O)c2coc3ccc(OC)cc23)c1 | inconclusive: 28.2 µM [inhibitor, partial curve]
28 | O=c1cc(CN2CCN(Cc3ccc(F)cc3)C(CCO)C2)[nH]c2ccccc12 (stereo not drawn) | inactive
29 | CC1CCN(C(=O)c2ccc(CSc3ccc(Cl)cc3)cc2)CC1 | inconclusive: 22.4 µM [inhibitor, partial curve, poor fit]
30 | CCOP(=O)(C1=C(O)C(=O)C(C(C)(C)C)=CC1=O)c1ccccc1 (stereo not drawn) | inactive
31 | COc1ccc(S(=O)(=O)NCCSCc2ccco2)cc1Cl | inconclusive: 25.1 µM [inhibitor, partial curve]
32 | O=C(COC(=O)Cc1ccc(Br)cc1)NCc1ccc(F)cc1 | inconclusive: 14.1 µM [inhibitor, partial curve]
33 | CC(C)[C@H](NC(=O)OC(C)(C)C)C(=O)N/N=C/c1cccc2nccnc12 | inconclusive: 31.6 µM [inhibitor, partial curve]
34 | Cc1cc(OCC(F)(F)C(F)(F)C(F)(F)C(F)(F)C(F)(F)C(F)F)nc(N)n1 | inconclusive: 14.1 µM [inhibitor, partial curve]
35 | CN(NS(=O)(=O)c1cccs1)c1ncc(C(F)(F)F)cc1Cl | inconclusive: 25.1 µM [inhibitor, partial curve]
36 | Oc1ccc(-c2ccccc2)cc1CN1CCCCCC1 | inactive
37 | COC(=O)C1=C(C)N2C(=O)CSC2=NC1c1ccc2c(c1)OCO2 (stereo not drawn) | inconclusive: 12.6 µM [inhibitor, partial curve]
38 | O=C(CNC(=O)c1ccccc1C(F)(F)F)N/N=C/c1cccs1 | inconclusive: 14.1 µM [inhibitor, partial curve]
39 | CC(CCn1cccn1)NC(=O)c1cc(COc2ccc(F)cc2Cl)on1 (stereo not drawn) | inconclusive: 22.4 µM [inhibitor, partial curve]
40 | CC(C)(C)c1ccc(S(=O)(=O)c2cnc(SCC(=O)Nc3ccc4c(c3)OCCO4)[nH]c2=O)cc1 | inconclusive: 12.6 µM [inhibitor, partial curve]
41 | CCOc1cc(C=C2C(=O)c3ccccc3C2=O)ccc1OCC(=O)Nc1ccc(C)cc1 | inactive
42 | Cc1cc(C)cc(NS(=O)(=O)c2cnc(Cl)c(Cl)c2)c1 | inconclusive: 31.6 µM [inhibitor, partial curve]
43 | CCOC(=O)c1cc(-c2ccc(N3CCOCC3)cc2)nn1-c1ccc(F)cc1F | inactive
44 | CC1CCN(S(=O)(=O)c2ccc(NC(=O)Cc3cccs3)cc2)CC1 | inconclusive: 31.6 µM [inhibitor, partial curve]
45 | COc1ccc(C(=O)Nc2ccc(S(=O)(=O)Nc3onc(C)c3C)cc2)c(OC)c1 | inactive
46 | Cc1ccc(-c2nnc(Nc3ccc4c(c3)OCO4)c3ccccc23)cc1S(=O)(=O)NCCO | inactive

Row | SMILES | Potency
47 | Cc1ccc(S(=O)(=O)N2CCN(c3ccnc4cc(Cl)ccc34)CC2)cc1 | inconclusive: 7.08 µM [inhibitor, full curve, poor fit]
48 | CC1=CCC2C(=O)N(CCc3c[nH]c4ccccc34)C(=O)C2C1 (stereo not drawn) | inconclusive: 12.6 µM [inhibitor, partial curve]
49 | O=C(CSCc1ccccc1)Nc1ccc(S(=O)(=O)N2CCOCC2)cc1 | inconclusive: 17.8 µM [inhibitor, partial curve]
50 | CC1CCC(NC(=O)CCC(=O)N2CC(C)Oc3ccccc32)CC1 (stereo not drawn) | inconclusive: 31.6 µM [inhibitor, single point]
51 | CN(C(=O)/C=C/c1ccc([N+](=O)[O-])s1)c1ccccc1 | inconclusive: 35.5 µM [inhibitor, partial curve]
52 | Cc1nn(-c2ccc3ccccc3c2)c(=O)c2ccccc12 | inconclusive: 22.4 µM [inhibitor, partial curve]
53 | CC(C)CC(=O)Nc1ccc2c(c1)OCO2 | inconclusive: 25.1 µM [inhibitor, single point]
54 | O=C(O)C1Nc2c(Cl)cc(Cl)cc2C2C=CCC12 (stereo not drawn) | inactive
55 | O=[N+]([O-])c1ccccc1/C=C/c1ccc2ccccc2n1 | inconclusive: 28.2 µM [inhibitor, partial curve]
56 | CCc1ccc(C(=O)COC(=O)[C@@H](NC(N)=O)[C@@H](C)CC)cc1 | inconclusive: 35.5 µM [inhibitor, partial curve]
57 | O=C1c2cccc3c([N+](=O)[O-])ccc(c23)C(=O)N1O | inactive
58 | COC(=O)c1cc(S(=O)(=O)N2CCCCCC2)c[nH]1 | inconclusive: 17.8 µM [inhibitor, partial curve]
59 | O=S(=O)(NCCSc1ccc(Cl)cc1)c1ccc(F)cc1 | inconclusive: 39.8 µM [inhibitor, partial curve]
60 | O=C(N/N=C/c1ccccc1Cl)c1ccc(F)cc1 | inactive
61 | CC(=O)OCC(=O)[C@@]1(O)[C@H](OC(C)=O)C[C@H]2[C@@H]3CCC4=CC(=O)C=C[C@]4(C)[C@@]3(F)[C@@H](O)C[C@@]21C | inactive
62 | CCOc1cccc(-c2nnc(SCC(=O)Nc3cccc(OC)c3)n2N)c1 | inconclusive: 22.4 µM [inhibitor, partial curve]
63 | O=C(Cn1cccc1)N1CCc2ccccc21 | inconclusive: 15.8 µM [inhibitor, partial curve]
64 | Clc1c(-c2nnc3n2CCCCC3)sc2ccccc12 | inconclusive: 35.5 µM [inhibitor, partial curve]
65 | CN1CCc2c(sc(NC(=O)c3ccc(S(=O)(=O)N4CCCCCC4)cc3)c2C(N)=O)C1 | inconclusive: 14.1 µM [inhibitor, partial curve]
66 | COc1ccc(/C=N\NC(=O)c2ccccc2[N+](=O)[O-])cc1COc1c(F)c(F)c(F)c(F)c1F | inconclusive: 25.1 µM [inhibitor, partial curve]
67 | CSc1nc(-c2ccccc2)nn1S(=O)(=O)c1ccccc1 | inactive
68 | O=C(CN1C(=O)COc2ccccc21)c1ccc(Cl)cc1 | inconclusive: 39.8 µM [inhibitor, single point]
